# Assay results published in PubChem BioAssay AID485297 (National Center for Advancing Translational Sciences (NCATS), 2010).
# Out of some 320,000 compounds screened, about 9,100 (2.8%) were called active. The shares of active, inactive and inconclusive entries below differ from those in the screen. Calls follow the shape of the dose curve; as a rule, active = well fitted activation curve with a large enough effect; inconclusive = small, poorly fitted or top-dose-only effect; inactive = no such curve, though single readings can be large or run the other way. No potency is given beside an inconclusive call; the fits are too rough.
# Assay: qHTS Assay for Rab9 Promoter Activators; also: nearly all actives have a fitted effect of over 60% in size
# Details: Huh7 Rab9 promoter-luciferase reporter, luminescence, 24 h; series mostly up to 9.22 µM
# Summary of the method: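 Using Huh7 cells stably transfected with Rab9 promoter–luciferase, compounds were incubated 24 h at 37 °C, 5% CO2; luciferase luminescence was read 10 min after reagent addition.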
# Potency is read from the fitted curve at half-maximal effect; tags tell the direction and shape of the fitted curve.
row,Structure (SMILES),Potency
1,CN(CC(=O)Nc1ccccc1C(F)(F)F)C(=O)C1=COCCO1,inactive
2,O=C(Cn1c(/C=C/c2ccccc2)nc2ccccc21)Nc1ccc(F)cc1,"inconclusive [activator, single point]"
3,Fc1ccccc1NC(=S)Nc1ccc(Br)cc1,inactive
4,O=C1CC(/C=C/c2ccc([N+](=O)[O-])cc2)=Nc2ccccc2N1,"inconclusive [activator, partial curve]"
5,c1ccc2oc(-c3ccc4nc[nH]c4c3)nc2c1,active: 1.58 µM
6,Cc1ccc(NC2Nc3cc(C)nn3S2)c(C)c1 (centres undefined),"inconclusive [activator, single point]"
7,CCCCn1c(N)c(N(CCOC)C(=O)c2ccc(Cl)c(S(=O)(=O)N3CCCCC3)c2)c(=O)[nH]c1=O,inactive
8,N/C(=N\C(=S)Nc1ccccc1)c1ccccc1,active: 0.708 µM
9,CCOC(=O)c1ccc(NC(=O)C(=O)NCC2CCCO2)cc1 (centres undefined),"inconclusive [activator, single point]"
10,CCOc1cc(CNCCO)cc(Br)c1OCc1ccc(Cl)cc1,inactive
11,COc1cc2c(cc1NC(=O)COCC(=O)O)oc1ccccc12,inactive
12,Cc1c(C(=O)Nc2nccs2)oc2ccc(F)cc12,active: 1.58 µM
13,COc1cc(O)oc1C=Nc1ccc(C(F)(F)F)cc1,"inconclusive [activator, partial curve]"
14,CSCC(=O)N1CCC(n2nccc2NC(=O)c2ccc3c(c2)OCO3)CC1,"inconclusive [activator, single point]"
15,CC(C)Oc1ccc(C(CC(=O)NCc2ccco2)c2ccccc2)cc1 (centres undefined),inactive
16,CCOC(=O)c1ccc(NCc2ccc(N(C)C)cc2)cc1,"inconclusive [activator, partial curve]"
17,O=C(NCc1ccco1)c1ccc2ccccc2c1,"inconclusive [activator, partial curve]"
18,Cc1[nH]c(C)c2c(=O)n(-c3ccccc3)ncc12,"inconclusive [activator, single point]"
19,Cc1ccc(-c2nn(CC(=O)O)c(=O)c3ccccc23)cc1,"inconclusive [activator, partial curve]"
20,Cc1csc(NC(=O)CSc2nnnn2C)n1,"inconclusive [activator, single point]"
21,Cc1[nH]c2ccccc2c1/C=C(\C#N)C(=O)NC1CC1,"inconclusive [activator, partial curve]"
22,Cc1cccc(N2CCN(C(=O)NC3CCCCC3)CC2)c1C,"inconclusive [activator, single point]"
23,O=C(O)c1cc(S(=O)(=O)N2CCOCC2)c[nH]1,inactive
24,c1ccc2c(SCc3cn4ccccc4n3)nncc2c1,"inconclusive [activator, partial curve]"
25,O=C(Nc1sc2c(c1C(=O)O)CCCC2)c1cccs1,inactive
26,O=C(Cn1cccc1C(=O)c1ccccc1)NCCC1=CCCCC1,inactive
27,COc1ccccc1NC(=O)CSc1nc(=O)n(Cc2ccncc2)c2c1CCCC2,inactive

row,Structure (SMILES),Potency
1,O=C(Nc1ccc(-c2nc3cccnc3s2)cc1)C1CCCO1 (centres undefined),active: 0.1 µM
2,COc1ccc(N=C2NC(=O)S/C2=C\c2ccc(N(C)C)cc2)cc1,"inconclusive [activator, partial curve]"
3,O=C(/C=C/c1cnc2ccccc2n1)NC1CCCCCC1,active: 3.16 µM
4,COC(=O)n1c(=S)oc2cc(Cl)ccc21,inactive
5,CC(C)CNC(=S)NC(=O)c1ccc([N+](=O)[O-])cc1,"inconclusive [activator, partial curve, poor fit]"
6,COc1ccc(CNCCC(c2ccccc2)C2CCOC(C)(C)C2)cc1 (centres undefined),inactive
7,O=C(NCCc1ccccc1)c1noc2c1CCc1ccccc1-2,"inconclusive [activator, partial curve]"
8,CS(=O)(=O)c1ccc2nc(NC(=O)c3cc4ccccc4o3)sc2c1,"inconclusive [activator, partial curve]"
9,Cc1ccc(C(=O)Nc2ncc(C)s2)s1,"inconclusive [activator, full curve]"
10,CN(C(=O)c1ccncc1)c1nnc(-c2ccccn2)s1,"inconclusive [activator, partial curve]"
11,Cc1csc(NC(=O)c2cnccn2)n1,"inconclusive [activator, partial curve]"
12,CC1CCN(C(=O)COC(=O)c2n[nH]c3ccccc23)CC1,active: 3.16 µM
13,Cc1ccc(C(=O)NC(=S)N(C)C2CCCCC2)cc1,"inconclusive [activator, partial curve]"
14,Cc1ccc(CNC(=O)CSc2ccc(-c3ccccn3)nn2)cc1,inactive
15,COc1ccc(NC(=O)CN(C)C(=O)c2ccc(OCc3ccccc3)c(OC)c2)cc1,inactive
16,S=c1[nH]nc(-c2cc(-c3ccccc3)n[nH]2)n1/N=C/c1ccc(Br)s1,inactive
17,Cc1ccc(C2CCN(C(=S)NC(C)(C)C)C2)cc1 (centres undefined),"inconclusive [activator, single point]"
18,COc1cccc(C(=O)OCc2ccccc2C#N)c1O,inactive
19,COc1ccccc1/C=C/C=N/NC(=O)c1ccccn1,active: 1.12 µM
20,O=C(Nc1cccc2cccnc12)c1ccc2c(c1)OCCO2,"inconclusive [activator, partial curve]"
21,CCOC(=O)c1ccc(NC(=O)C2CCCO2)cc1 (centres undefined),active: 6.31 µM
22,O=C(Cc1nc(=O)c2ccccc2s1)Nc1ccccc1,active: 0.316 µM
23,COc1ccccc1C(=O)COC(=O)CCN=C1NS(=O)(=O)c2ccccc21,inactive
24,COc1ccc(S(=O)(=O)N2CCC(C(=O)NC3CCCCC3)CC2)cc1OC,inactive
25,O=c1cc(CSc2nnc(Nc3ccccc3F)s2)nc2sccn12,"inconclusive [activator, single point]"
26,COc1ccc2[nH]c3c4c(ccc3c2c1)C(=O)C=CC4=O,inactive
27,COCc1nc2oc3ccc(F)cc3c(=O)c2cc1C(=O)OC,"inconclusive [activator, partial curve]"
